# Laboratory results published in PubChem BioAssay AID2546 (National Center for Advancing Translational Sciences (NCATS), 2010).
# Values joined by “and” are separate entries in the source; they are usually repeats but may differ in a detail not shown here. Equal entries are not always repeated. Among all 310,000 compounds or so, about 11,000 (3.5%) were called active. Inconclusive results, whose numbers are uncertain, are shown with a selection of clear calls. Calls follow the shape of the dose curve; as a rule, active = well fitted inhibition curve with a large enough effect; inconclusive = small, poorly fitted or top-dose-only effect, or effect the other way; inactive = flat fitted curve, though single readings scatter. Where the call is inconclusive, the potency comes from a doubtful curve fit.
# Assay: VP16 counterscreen qHTS for inhibitors of ROR gamma transcriptional activity;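 also: Gal4-VP16 expression switched on by copper sulfate through the metallothionein promoter; nearly all actives have a fitted effect of over 50% in size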
# Settings: Drosophila S2 Gal4-VP16 UAS-luciferase, luminescence, 20 h; series mostly up to 53.6 µM
# Potency is read from the fitted curve at half-maximal effect; tags tell the direction and shape of the fitted curve.
row,Structure (SMILES),Potency
1,Clc1ccc(C2C3=C(Nc4ncnn42)c2ccccc2CC3)cc1 (stereo not drawn),"inconclusive: 35.5 µM [inhibitor, single point]"
2,Cc1ccc(SC(=O)c2c([N+](=O)[O-])c(C)nn2C)cc1,active: 3.55 µM
3,Cc1ccccc1CSCC(=O)N/N=C/c1cccs1,inactive
4,CCCc1[nH][nH]c(=O)c1C(c1ccc(Br)cc1)C(C#N)C#N (stereo not drawn),"inconclusive: 15.8 µM [inhibitor, single point]"
5,O=C(Nc1c[nH]c2c(Cl)cccc2c1=O)N1CCN(c2ccccn2)CC1,inactive
6,C=CCc1cccc(/C=N/NC(=O)c2ccccc2Br)c1O,active: 3.98 µM
7,COc1ccc(-c2n[nH]c(C)c2-c2ccccc2OC)c(O)c1,"inconclusive: 22.4 µM [inhibitor, single point]"
8,O=CC1=C(N2CCOCC2)/C(=C/c2ccc(Cl)cc2)CC1,inactive
9,Nc1cccc(-n2nncc2-c2ccc(Cl)cc2)c1,inactive
10,Cc1ccc(C(=O)OC2=CC(=O)CC(C)(C)C2)cc1,"inconclusive: 20 µM [inhibitor, partial curve, poor fit]"
11,CC(C1CC2CCC1C2)n1c(-c2ccco2)n[nH]c1=S (stereo not drawn),active: 6.31 µM
12,CCOC(=O)C(=O)N1CCN(c2cc3c(cc2[N+](=O)[O-])n(C)c(=O)n3C)CC1,inactive
13,CSc1ccccc1C(=O)NCCSc1ccccc1,"inconclusive: 35.5 µM [inhibitor, single point]"
14,CCc1ccc(NC(=S)N(CCN2CCCCC2)Cc2ccco2)cc1,"inconclusive: 22.4 µM [inhibitor, single point]"
15,O=C(Nn1cnc2ccccc2c1=O)c1cccc(Cl)c1,"inconclusive: 10 µM [activator, partial curve]"
16,NCCCCCCCCCCNS(=O)(=O)c1cccc2c(Cl)cccc12,active: 31.6 µM
17,CCOC(=O)C1(CC2CC2)CCN(Cc2ccc(O)c(Cl)c2)CC1,inactive
18,COc1ccc(-n2c(/C=C3\C(=O)N(C)c4ccccc43)nc3ccccc3c2=O)cc1,inactive
19,Cc1cc(NC(=O)CC(C)C)c(=O)n(Cc2cccc(F)c2)c1,inactive
20,Fc1ccc(-c2csc3ncnc(Nc4ccc(N5CCOCC5)cc4)c23)cc1,inactive
21,COc1ccc(C2CC(O)(c3ccccc3)Oc3cc(OC)ccc32)cc1 (stereo not drawn),"inactive and inconclusive: 35.5 µM [inhibitor, single point]"
22,Cc1ccc(NC(=O)O/N=C/c2c(C)nn(C(C)(C)C)c2C)cc1Cl,active: 0.282 µM
23,S=C(c1ccc(-c2ccc(Cl)cc2)o1)N1CCCCC1,"inconclusive: 31.6 µM [inhibitor, single point]"
